Laboratory results: the supplement of paper PMC11417369
± gives the standard deviation of the averaged measurements. Some of the results follow.

The sequences below were run on PfAP2-EXP AP2 domain (GST-tagged) (assay: gcPBM binding intensity (ln(normalized median fluorescence intensity)); higher = stronger DNA binding).
Summary of the method: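 For binding intensity, the highest Masliner-normalised natural-log median intensity across replicate spots of either probe orientation was taken. Protein bound to the array was stained with Alexa488 anti-GST antibody and scanned at 488 nm. The protein, GST-tagged P. falciparum DNA-binding domains from E. coli at about 25 μg on average, had been applied for 1 h to an Agilent 4 × 180k array of primer-extended double-stranded 36-bp intergenic genomic probes and negative controls.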

Sequence	gcPBM binding intensity (ln)
TATAAACGCACCTACACACACAACGTAAATGCATTG [CACACA_site7120]	9.1 ± 0.16
ATGTGTTTGTATATATGTACATATTTATGTTATTTC [XGTACX_site6960]	9.02 ± 0.52
AATTTAATTGTGAGAGTGCGTACTGCTCCACATATA	8.61 ± 0.28
TATATATATAAATACACACACACAAAAAAAAAAAAA [CACACA_site4930]	8.6 ± 0.34
AAAAAAAAAAAAAAAAAAAAAAAAAAATGAGATACA [GTGCAC_negctrl_site160]	9.09 ± 0.014
TTTTGATATATGAATATTAAGTTATATAATATTTTA [TGCATGCA_negctrl_site39]	7.92 ± 0.28
TACAGTAAAAATAGTTGTACTTGTTTATTTCTTCTT [XGTACX_site7674]	8.37 ± 0.38
AAAAGGATATATGAAAGTACAAAGGTATAGTATATT [XGTACX_site7385]	9.02 ± 0.31
ATAATACCAGAATAGATTTAAATGAATATTTTATTT [CACACA_negctrl_site476]	8.22 ± 0.44
ATCTTATCATTTTAAAGTACATAATTAATTCTTTTT [XGTACX_site3999]	8.59 ± 0.36
TATAACAAATAAAAATGTACATATATATAATATATA [XGTACX_site6173]	8.4 ± 0.64
ATGATATATTTAATAGTGCACTAATTAAAATTATTA [GTGCAC_site9418]	8.43 ± 0.071
TATTTATTTATTTTGTTATAATTAAAATGGATACAT [XGTACX_negctrl_site387]	8.24 ± 0.33
CTACACACTTATAAATGTACAGGATTTAAGTATATG [XGTACX_site8245]	8.39 ± 0.33
AGTAGTCTGGAGAAGAGTACATAGTATCTGGTAGCT [XGTACX_site2017]	8.71 ± 0.35
AAATATAATAATACATTGCACATATATTATATATAT [TGCATGCA_negctrl_site611]	8.565 ± 0.049
TGTAATAATCTTCATTTCTTTTTTTTTTTTTTTTGT [CACACA_negctrl_site1388]	8.17 ± 0.24
AGTGAATATTACGAAACACACAAAAAAATACATTTC [CACACA_site511]	8.74 ± 0.31
TAACTTAATAAAAAAAGTACATATATTTTTAATAAA [XGTACX_site2707]	8.18 ± 0.16

Sequence	gcPBM binding intensity (ln)
GTTTATATGTTCATAGTGCATATATGTTGATTTATT	8.77 ± 0.29
TATAAAAAAAAAAAAAAAAAAAAAAAAAAAAAAAAA [TGCATGCA_negctrl_site42]	7.88 ± 0.46
TTTTTTTTTTTTTACTGTACTTAATAAGATTGAATA [XGTACX_site2384]	8.49 ± 0.48
CAGGAGAGAAAATATCGTACAAGCAAAAATAAGTGG [XGTACX_site8557]	9.01 ± 0.49
AAATTATAAAAATGTAGTACAGACAATATATTCGTA [XGTACX_site8307]	8.75 ± 0.49
ATAAATATTATTTTACGTACATATTTATGAAGTATT [XGTACX_site8746]	8.44 ± 0.3
AAATTATATACCACAGTGCAAAAGGCAGGTATACGT	8.94 ± 0.3
TGTGTATATATGCTGGTGCAACTTTAAAAAATAATC	8.78 ± 0.042
TATTATTTTAAGATTGTTTATGTAAAGAATTATGAA [CACACA_negctrl_site445]	8.05 ± 0.49
TATATTGCAAAAAGTACACACATAAATAAATACATA [CACACA_site6589]	8.79 ± 0.37
TTTTTTTTTTTTTGCACACACATATATAAATATATA [CACACA_site3949]	8.68 ± 0.42
GTAGAGAAAAAAATGTGGACACAAAAAATAAAAAGG [XGTACX_site4058]	9.05 ± 0.3
AAAAAAAAAAAAAAAGTGCATTAATAAATTTTAATA	8.47 ± 0.33
TTTCCCTACCAAAAGTGTACTTATACATATTTTTAT [XGTACX_site5495]	8.63 ± 0.42
ATACGAAAATATTTTGCACACTATAATTATTCATAT [CACACA_site1765]	8.92 ± 0.33
ACATATTATTCTTCTTGTACACATAAATTTTATAAA [XGTACX_site299]	9.02 ± 0.34
ACATCTATGTATAATACACACACTAATATATAATTG [CACACA_site5134]	8.4 ± 0.41
TTTTTTTCATAATATACACACAAAAAAAAAAAAAAA [CACACA_site3224]	8.14 ± 0.45
TATACTCATATATAAACACACAAAAAAAAAAAAAAA [CACACA_site5165]	8.37 ± 0.45

Sequence	gcPBM binding intensity (ln)
ATATATATATATATGTGTACATATATATATCATATG [XGTACX_site3126]	10.1 ± 0.46
ACACAATGTAGTGTATAAATACAATAAAAGGTTGTA [TGCATGCA_negctrl_site251]	8.52 ± 0.37
TCAGAAATATTACAAAGTACATGCAACGAAAATTTC [XGTACX_site5061]	8.695 ± 0.007
TCTTATAATTTACCTACACACAGGAAATATATAAAT [CACACA_site294]	8.36 ± 0.4
TGATATTTAAATTTTGCACACGCATATGAAATTAGG [CACACA_site1034]	8.51 ± 0.23
ATGACGTAGTGGTGTACACACATGGTACCTTTATTC [CACACA_site1547]	9.27 ± 0.53
AAAAAAATATTCAAAGCATGCCTATTTACACATATT [TGCATGCA_site806]	8.78 ± 0.35
TCTATTATCCTTTGCACACAAAATAAATGAAAAAAT [CACACA_site3029]	8.58 ± 0.41
ATATAAGTTTTTTCTCAAAAAGTATAACGAGCATGA [CACACA_negctrl_site1375]	8.72 ± 0.44
CCCACGTATATTTTGTGTACATAAATAAATAAATAA [XGTACX_site4046]	9.22 ± 0.48
TTTGATAAATGATACACACACAATATTTATAAAATA [CACACA_site7040]	8.54 ± 0.52
ACATTATATAAATATATACATATATATATATATAAA [GTGCAC_negctrl_site115]	8.13 ± 0.32
TGTCATGATACATACACACACATACACATACACATA [CACACA_site2135]	8.71 ± 0.45
TATTTAATTATATAAAATTAAATTTTTAATTCTTCC [CACACA_negctrl_site473]	8.14 ± 0.47
AAACAACAAAAATGATATATATAAAATTTATAATAT [XGTACX_negctrl_site185]	8.47 ± 0.36
TATGGATTACACAATTGTACAAGAAAAATGTAAATA [XGTACX_site4040]	8.56 ± 0.17
ATGCATAAAAGAAATACACACATAAATATATAAATA [CACACA_site2163]	8.74 ± 0.23
TATAAACTTAATTTGAGTACTTAATAATAATTTTGT [XGTACX_site3730]	8.04 ± 0.33
ATTTATGATATGTAAACATGCATAAAAATTTCAAAA [TGCATGCA_site858]	8.23 ± 0.34
